Results reported in the supplement of paper PMC8728848.
The list shows a part of the results.

Legend:
Assay in all cases: glycan array binding signal (z-score within array); higher = stronger binding
Settings in all cases: glycan notation: IUPAC condensed, linker removed
[1] = biological target: Gal(b1-3)[GlcNAc(b1-6)]GalNAc
Outline: (§1)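 Glycan array data were curated from 3228 arrays in the Consortium for Functional Glycomics database and kept only where the protein sequence was available. Glycan names were converted to IUPAC-condensed notation, and columns mapping to the same glycan were averaged. The binding signal is a within-array Z-score, averaged across arrays of the same protein sequence at different concentrations or buffers and across linkers. Negative Z-scores can be read as non-binding.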

[2] = biological target: Gal(b1-3)[Neu5Ac(a2-6)]GalNAc
Outline: as §1

[3] = biological target: Gal(b1-3)[Neu5Ac(a2-6)]GlcNAc(b1-4)Gal(b1-4)Glc
Outline: as §1

[4] = biological target: Gal(b1-3)[Neu5Ac(b2-6)]GalNAc
Outline: as §1

[5] = biological target: Gal(b1-4)GalNAc(a1-3)[Fuc(a1-2)]Gal(b1-4)GlcNAc
Outline: as §1

Gal(b1-4)Glc = biological target: Gal(b1-4)Glc
Outline: as §1

Gal(b1-4)Glc6S = biological target: Gal(b1-4)Glc6S
Outline: as §1

Gal(b1-4)GlcNAc = biological target: Gal(b1-4)GlcNAc
Outline: as §1

[6] = biological target: Gal(b1-4)GlcNAc(b1-3)Gal(b1-4)Glc
Outline: as §1

[7] = biological target: Gal(b1-4)GlcNAc(b1-3)Gal(b1-4)GlcNAc
Outline: as §1

[8] = biological target: Gal(b1-4)GlcNAc(b1-3)Gal(b1-4)GlcNAc(b1-3)Gal(b1-4)GlcNAc
Outline: as §1

[9] = biological target: Gal(b1-4)GlcNAc(b1-3)Gal(b1-4)[Fuc(a1-3)]GlcNAc(b1-3)Gal(b1-4)[Fuc(a1-3)]GlcNAc
Outline: as §1

[10] = biological target: Gal(b1-4)GlcNAc(b1-3)GalNAc
Outline: as §1

[11] = biological target: Gal(b1-4)GlcNAc(b1-3)[Gal(b1-4)GlcNAc(b1-6)]GalNAc
Outline: as §1

[12] = biological target: Gal(b1-4)GlcNAc(b1-6)GalNAc
Outline: as §1

[13] = biological target: Gal(b1-4)GlcNAc(b1-6)[Gal(b1-3)]GalNAc
Outline: as §1

Gal3S(b1-3)GalNAc = biological target: Gal3S(b1-3)GalNAc
Outline: as §1

Gal3S(b1-3)GlcNAc = biological target: Gal3S(b1-3)GlcNAc
Outline: as §1

[14] = biological target: Gal3S(b1-3)[Fuc(a1-4)]GlcNAc
Outline: as §1

Gal3S(b1-4)Glc = biological target: Gal3S(b1-4)Glc
Outline: as §1

Gal3S(b1-4)Glc6S = biological target: Gal3S(b1-4)Glc6S
Outline: as §1

Gal3S(b1-4)GlcNAc = biological target: Gal3S(b1-4)GlcNAc
Outline: as §1

Gal4S(b1-4)GlcNAc = biological target: Gal4S(b1-4)GlcNAc
Outline: as §1

Gal6S(b1-4)Glc = biological target: Gal6S(b1-4)Glc
Outline: as §1

Gal6S(b1-4)Glc6S = biological target: Gal6S(b1-4)Glc6S
Outline: as §1

GalNAc(a1-3)Gal = biological target: GalNAc(a1-3)Gal
Outline: as §1

GalNAc(a1-3)GalNAc = biological target: GalNAc(a1-3)GalNAc
Outline: as §1

GalNAc(b1-3)GalNAc = biological target: GalNAc(b1-3)GalNAc
Outline: as §1

GalNAc(b1-4)GlcNAc = biological target: GalNAc(b1-4)GlcNAc
Outline: as §1

Glc(a1-4)Glc = biological target: Glc(a1-4)Glc
Outline: as §1

Glc(b1-4)Glc = biological target: Glc(b1-4)Glc
Outline: as §1

Glc(b1-6)Glc = biological target: Glc(b1-6)Glc
Outline: as §1

[15] = biological target: GlcNAc(b1-2)Gal(b1-3)GalNAc
Outline: as §1

GlcNAc(b1-3)Gal = biological target: GlcNAc(b1-3)Gal
Outline: as §1

[16] = biological target: GlcNAc(b1-3)Gal(b1-3)GalNAc
Outline: as §1

GlcNAc(b1-3)Gal(b1-4)Glc = biological target: GlcNAc(b1-3)Gal(b1-4)Glc
Outline: as §1

[17] = biological target: GlcNAc(b1-3)Gal(b1-4)GlcNAc
Outline: as §1

[18] = biological target: GlcNAc(b1-3)[GlcNAc(b1-6)]GalNAc
Outline: as §1

[19] = biological target: GlcNAc(b1-3)[GlcNAc(b1-6)]GlcNAc(b1-4)GlcNAc
Outline: as §1

[20] = biological target: GlcNAc(b1-4)GlcNAc(b1-4)GlcNAc
Outline: as §1

[21] = biological target: GlcNAc(b1-4)[GlcNAc(b1-6)]GalNAc
Outline: as §1

GlcNAc(b1-6)GalNAc = biological target: GlcNAc(b1-6)GalNAc
Outline: as §1

Kdn(a2-3)Gal(b1-3)GlcNAc = biological target: Kdn(a2-3)Gal(b1-3)GlcNAc
Outline: as §1

Kdn(a2-3)Gal(b1-4)GlcNAc = biological target: Kdn(a2-3)Gal(b1-4)GlcNAc
Outline: as §1

[22] = biological target: Man(a1-2)Man(a1-2)Man(a1-3)Man
Outline: as §1

B1: Hip/Pap (Homo sapiens), Q06141 (protein)
chain: MLPPMALPSVSWMLLSCLMLLSQVQGEEPQRELPSARIRCPKGSKAYGSHCYALFLSPKSWTDADLACQKRPSGNLVSVLSGAEGSFVSSLVKSIGNSYSYVWIGLHDPTQGTEPNGEGWEWSSSDVMNYFAWERNPSTISSPGHCASLSRSTAFLRWKDYNCNVRLPYVCKFTD
glycan array binding signal (z-score) [1]: -0.159 | glycan array binding signal (z-score) [2]: -0.098 | glycan array binding signal (z-score) [3]: -0.105 | glycan array binding signal (z-score) [4]: -0.141 | glycan array binding signal (z-score) [5]: -0.153 | glycan array binding signal (z-score) (Gal(b1-4)Glc): -0.114 | glycan array binding signal (z-score) (Gal(b1-4)Glc6S): -0.129 | glycan array binding signal (z-score) (Gal(b1-4)GlcNAc): -0.175 | glycan array binding signal (z-score) [6]: -0.133 | glycan array binding signal (z-score) [7]: -0.157 | glycan array binding signal (z-score) [8]: -0.173 | glycan array binding signal (z-score) [9]: -0.061 | glycan array binding signal (z-score) [10]: -0.184 | glycan array binding signal (z-score) [11]: -0.129 | glycan array binding signal (z-score) [12]: -0.167 | glycan array binding signal (z-score) [13]: -0.154 | glycan array binding signal (z-score) (Gal3S(b1-3)GalNAc): -0.175 | glycan array binding signal (z-score) (Gal3S(b1-3)GlcNAc): -0.187 | glycan array binding signal (z-score) [14]: -0.164 | glycan array binding signal (z-score) (Gal3S(b1-4)Glc): 0.278 | glycan array binding signal (z-score) (Gal3S(b1-4)Glc6S): -0.066 | glycan array binding signal (z-score) (Gal3S(b1-4)GlcNAc): -0.166 | glycan array binding signal (z-score) (Gal4S(b1-4)GlcNAc): -0.181 | glycan array binding signal (z-score) (Gal6S(b1-4)Glc): -0.162 | glycan array binding signal (z-score) (Gal6S(b1-4)Glc6S): -0.157 | glycan array binding signal (z-score) (GalNAc(a1-3)Gal): -0.144 | glycan array binding signal (z-score) (GalNAc(a1-3)GalNAc): 0.07 | glycan array binding signal (z-score) (GalNAc(b1-3)GalNAc): -0.135 | glycan array binding signal (z-score) (GalNAc(b1-4)GlcNAc): -0.094 | glycan array binding signal (z-score) (Glc(a1-4)Glc): 0.806 | glycan array binding signal (z-score) (Glc(b1-4)Glc): -0.182 | glycan array binding signal (z-score) (Glc(b1-6)Glc): 0.091 | glycan array binding signal (z-score) [15]: -0.099 | glycan array binding signal (z-score) (GlcNAc(b1-3)Gal): 0.046 | glycan array binding signal (z-score) [16]: -0.057 | glycan array binding signal (z-score) (GlcNAc(b1-3)Gal(b1-4)Glc): -0.125 | glycan array binding signal (z-score) [17]: -0.105 | glycan array binding signal (z-score) [18]: 0.063 | glycan array binding signal (z-score) [19]: 0.29 | glycan array binding signal (z-score) [20]: -0.149 | glycan array binding signal (z-score) [21]: 0.084 | glycan array binding signal (z-score) (GlcNAc(b1-6)GalNAc): 0.032 | glycan array binding signal (z-score) (Kdn(a2-3)Gal(b1-3)GlcNAc): -0.166 | glycan array binding signal (z-score) (Kdn(a2-3)Gal(b1-4)GlcNAc): -0.184 | glycan array binding signal (z-score) [22]: 0.366
